According to a collection of fitness landscapes (doi:10.1126/science.1257360):
The other results are listed elsewhere or left out.

B1: PhoQ; a variant is named by its letters at X, in order, P23837 (parent)
chain: MKKLLRLFFPLSLRVRFLLATAAVVLVLSLAYGMVALIGYSVSFDKTTFRLLRGESNLFYTLAKWENNKLHVELPENIDKQSPTMTLIYDENGQLLWAQRDVPWLMKMIQPDWLKSNGFHEIEADVNDTSLLLSGDHSIQQQLQEVREDDDDAEMTHSVAVNVYPATSRMPKLTIVVVDTIPVELKSSYMVWSWFIYVLSANLLLVIPLLWVAAWWSLRPIEALAKEVRELEEHNRELLNPATTRELTSLVRNLNRLLKSERERYDKYRTTLTDLTHSLKTPLXXLQXXLRSLRSEKMSVSDAEPVMLEQISRISQQIGYYLHRASMRGGTLLSRELHPVAPLLDNLTSALNKVYQRKGVNISLDISPEISFVGEQNDFVEVMGNVLDNACKYCLEFVEISARQTDEHLYIVVEDDGPGIPLSKREVIFDRGQRVDTLRPGQGVGLAVAREITEQYEGKIVAGESMLGGARMEVIFGRQHSAPKDE

Variants of: B1
Experiment: enrichment ratio after two sorts for PhoP signalling (ratio (wild type AVST 3.29)); higher = more functional
Conditions: with PhoP (E. coli)

Variant	enrichment ratio
YCVK	≤ 0.25
NMSY	≤ 0.25
VCPL	≤ 0.25
FRVG	≤ 0.25
FFTN	≤ 0.25
AAMM	13
GDVN	≤ 0.25
REVC	≤ 0.25
HFWE	≤ 0.25
ALRG	≤ 0.25
SNRH	≤ 0.25
QVAH	≤ 0.25
RMDN	≤ 0.25
EEDL	≤ 0.25
LCRD	≤ 0.25
EAPE	≤ 0.25
LLAG	≤ 0.25
TEIG	18.6
FFNW	≤ 0.25
NDDW	≤ 0.25
VHNH	≤ 0.25
LQYI	≤ 0.25
LHNP	≤ 0.25
SFAC	≤ 0.25
RCHT	≤ 0.25
LQDE	≤ 0.25

Variant	enrichment ratio
MFVW	≤ 0.25
EEYV	≤ 0.25
DHAW	≤ 0.25
INQD	≤ 0.25
RCLV	≤ 0.25
STPY	≤ 0.25
RYTH	≤ 0.25
PKHW	≤ 0.25
SKLL	14
LAHA	≤ 0.25
RFKW	≤ 0.25
DMGR	≤ 0.25
SAII	2.76
LHLT	≤ 0.25
FGYF	≤ 0.25
EMWT	≤ 0.25
SPQC	≤ 0.25
SWKL	≤ 0.25
YEPE	≤ 0.25
MLPD	≤ 0.25
NGCQ	≤ 0.25
MFSW	≤ 0.25
EAPY	≤ 0.25
DFKN	≤ 0.25
TEAW	3.79
SYMK	≤ 0.25

Variant	enrichment ratio
ENDV	≤ 0.25
QLMH	≤ 0.25
NWAR	≤ 0.25
QRSQ	≤ 0.25
ECNI	≤ 0.25
NVVY	≤ 0.25
MISM	6.82
VHST	≤ 0.25
YGSR	≤ 0.25
HPIT	≤ 0.25
WFFC	≤ 0.25
VQQE	≤ 0.25
NFTW	≤ 0.25
NHYW	≤ 0.25
PGHL	≤ 0.25
FPSW	0.359
PTVD	≤ 0.25
EQQL	0.602
GFLL	≤ 0.25
DDSQ	≤ 0.25
DCWY	≤ 0.25
RQAQ	≤ 0.25
MHIG	≤ 0.25
RPST	≤ 0.25
SFQW	≤ 0.25
MRTN	≤ 0.25

Variant	enrichment ratio
VWKA	≤ 0.25
IRPL	≤ 0.25
NDPD	≤ 0.25
LFHH	≤ 0.25
IAFM	≤ 0.25
GIIE	≤ 0.25
HMEL	≤ 0.25
RVSD	≤ 0.25
NYGW	≤ 0.25
SPCE	≤ 0.25
WRCA	≤ 0.25
SHWF	≤ 0.25
IWGC	≤ 0.25
VLAN	≤ 0.25
TCQC	5.67
PKQL	≤ 0.25
HWTF	0.277
PWEG	≤ 0.25
KPKR	≤ 0.25
LHSN	≤ 0.25
TEEM	≤ 0.25
HLSY	≤ 0.25
TKVV	16.7
ATTN	20.6
QDLT	≤ 0.25
SIVN	8.13

Variant	enrichment ratio
EGWG	≤ 0.25
DQPF	≤ 0.25
YSTC	≤ 0.25
LANH	≤ 0.25
GREF	≤ 0.25
IPSN	≤ 0.25
ERCF	≤ 0.25
YENA	≤ 0.25
MRLF	≤ 0.25
RTWT	≤ 0.25
DIHW	≤ 0.25
HMFR	≤ 0.25
DSAC	≤ 0.25
HDVH	≤ 0.25
RIQK	≤ 0.25
KKID	≤ 0.25
WGKS	≤ 0.25
WCRR	≤ 0.25
EDSV	≤ 0.25
NALC	≤ 0.25
AHIF	≤ 0.25
TDIQ	≤ 0.25
MTLD	≤ 0.25
AHYM	≤ 0.25
DDNL	≤ 0.25
EAND	≤ 0.25

Variant	enrichment ratio
AFHA	≤ 0.25
AVRL	≤ 0.25
FRRQ	≤ 0.25
YLGD	≤ 0.25
NFEF	≤ 0.25
WDPG	≤ 0.25
KHRS	≤ 0.25
PENT	≤ 0.25
WVFG	≤ 0.25
LVSN	0.301
LQTT	0.639
HSEV	≤ 0.25
NVCW	≤ 0.25
VFNH	≤ 0.25
MVAL	11.3
NNRM	≤ 0.25
ETWD	≤ 0.25
GYYY	≤ 0.25
SGNL	0.304
KFII	≤ 0.25
HKNH	≤ 0.25
SQLF	12.6
HHYV	≤ 0.25
